Measurements from the supplement of paper PMC11171410.
Counter-ions that a name gives are not always drawn. Repeats are few or missing, and single values can be far off.

What was measured:
[1] = test system: SUDHL6 venetoclax-resistant; assay: estimated IC50 (cell viability); higher = less potent
[2] = test system: SUDHL6 parental; assay: as above
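Note: compound screen comparing venetoclax-resistant SUDHL6, derived by months of escalating venetoclax exposure, with its matched parental line, IC50 from one-site nonlinear dose–response fit, geometric mean for duplicated compounds.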

Row | SMILES | estimated IC50 [1] | estimated IC50 [2]
1 | C=CC(=O)Nc1cccc(Oc2nc(Nc3ccc(N4CCN(C)CC4)cc3)nc3ccsc23)c1 | 3.2 µM | 8.13 µM
2 | CC1(C)CC(=O)c2c(C(F)(F)F)nn(-c3ccc(C(N)=O)c(N[C@H]4CC[C@H](O)CC4)c3)c2C1 | 0.261 µM | 0.648 µM
3 | CCc1cnn2c(NCc3ccc[n+]([O-])c3)cc(N3CCCC[C@H]3CCO)nc12 | 0.013 µM | 0.037 µM
4 | CNC(=O)Nc1ccc(-c2nc(N3CC4CCC(C3)O4)c3cnn(C4CCC5(CC4)OCCO5)c3n2)cc1 | 0.105 µM | 1.59 µM
5 | COc1cccc(NC(=O)/C=C/c2ccc(Cl)cc2)c1 | 4.05 µM | > 10 µM
6 | C[C@@H]1COCCN1c1cc(-c2ccnn2C)c2ccnc(-c3ccn[nH]3)c2n1 | 1.63 µM | 4.22 µM
7 | Cc1ccc(C(=O)N(CCCN)[C@@H](c2oc3cc(Cl)ccc3c(=O)c2Cc2ccccc2)C(C)C)cc1 | 0.0011 µM | 0.0045 µM
8 | Cc1ccc(S(=O)(=O)Nc2cc(-c3ccc(C#N)s3)ccc2C)cc1 | 0.036 µM | 0.088 µM
9 | O=C1NC(=O)C(c2cnc3ccccn23)=C1c1cn2c3c(cc(F)cc13)CN(C(=O)N1CCCCC1)CC2 | 0.76 µM | 2.09 µM
10 | Nc1ncn([C@@H]2O[C@H](CO)[C@@H](O)[C@H]2O)c(=O)n1 [5-azacytidine] | 2.13 µM | 4.8 µM
11 | Cn1cc(C2=C(c3coc4ccc(F)cc34)C(=O)NC2=O)c2cc3c(cc21)OCO3 [9-ing-41] | 4.67 µM | 7 µM
12 | Cc1sc2c(c1C)C(c1ccc(Cl)cc1)=N[C@@H](CC(=O)OC(C)(C)C)c1nnc(C)n1-2 [(+)-JQ1] | 0.81 µM | 1.52 µM
13 | C=C1C(=O)O[C@H]2[C@H]1CC/C(C)=C/CC[C@@]1(C)O[C@@H]21 [(-)-Parthenolide] | 6.1 µM | > 10 µM
14 | FC(F)(F)Oc1ccc2nc(-c3ccc(OCCOCCOc4ccc(-c5nc6ccc(OC(F)(F)F)cc6[nH]5)nc4)cn3)[nH]c2c1 [AI-10-49] | 2.76 µM | 4.17 µM
15 | C[C@H](Nc1ncnc2[nH]cnc12)c1cc2ccc(F)cc2nc1-c1ccccn1 [AMG319] | 5.87 µM | > 10 µM
16 | c1cc(Nc2cc(C3CC3)[nH]n2)nc(Nc2ccc3nc[nH]c3c2)n1 [APY29] | 0.27 µM | 0.58 µM
17 | O=C(c1ccc(Oc2ccccc2)cc1Cl)c1c[nH]c2ncnc(N[C@@H]3CC[C@@H](CO)OC3)c12 [ARQ 531] | 2.19 µM | 3.98 µM
18 | O=C(NC1CCNCC1)c1n[nH]cc1NC(=O)c1c(Cl)cccc1Cl [AT7519] | 3.9 µM | 6.7 µM
19 | O=C(Nc1c[nH]nc1-c1nc2ccc(CN3CCOCC3)cc2[nH]1)NC1CC1 [AT9283] | 1.94 µM | 3.93 µM
20 | C=CC(=O)Nc1cc(Nc2nccc(-c3c[nH]c4ccccc34)n2)c(OC)cc1N(C)CCN(C)C [AZ5104] | 3.42 µM | 7.28 µM
21 | Cc1cc(Nc2nc(N[C@@H](C)c3ccc(F)cc3)c(C#N)cc2F)n[nH]1 [AZ 960] | 1.06 µM | > 10 µM

Row | SMILES | estimated IC50 [1] | estimated IC50 [2]
22 | Cc1ncc(-c2ccnc(Nc3ccc(S(C)(=O)=O)cc3)n2)n1C(C)C [AZD5438] | 3.9 µM | 6.2 µM
23 | Cc1cc([C@@H](C)Nc2ccccc2C(=O)O)c2nc(N3CCOCC3)cc(=O)n2c1 [AZD6482] | 2.01 µM | > 10 µM
24 | NC(=O)Nc1cc(-c2cccc(F)c2)sc1C(=O)N[C@H]1CCCNC1 [AZD7762] | 0.3 µM | 0.6 µM
25 | C[C@@H](Nc1cc(F)cc(F)c1)c1cc(C(=O)N(C)C)cc2c(=O)cc(N3CCOCC3)oc12 [AZD8186] | 0.8 µM | 4.6 µM
26 | CCn1nc(C2CCN(C(=O)CCO)CC2)nc1-c1cnc(N)c(-c2nnc(C(C)(C)C)o2)n1 [AZD8835] | 2.86 µM | > 10 µM
27 | C=CCn1c(=O)c2cnc(Nc3ccc(N4CCN(C)CC4)cc3)nc2n1-c1cccc(C(C)(C)O)n1 [Adavosertib ?MK-1775?] | 3.6 µM | 5.71 µM
28 | CN(C)C/C=C/C(=O)Nc1cc2c(Nc3ccc(F)c(Cl)c3)ncnc2cc1O[C@H]1CCOC1 [Afatinib (BIBW2992)] | 1.92 µM | 7.88 µM
29 | Cc1noc(C)c1-c1cc(C(O)(c2ccccn2)c2ccccn2)c2nc(C3CC3)[nH]c2c1 [Alobresib (GS-5829)] | 0.18 µM | 0.39 µM
30 | Cc1nc(NC(=O)N2CCC[C@H]2C(N)=O)sc1-c1ccnc(C(C)(C)C(F)(F)F)c1 [Alpelisib (BYL719)] | 5.48 µM | > 10 µM
31 | COc1cc(NS(C)(=O)=O)ccc1Nc1c2ccccc2nc2ccccc12 [Amsacrine hydrochloride] | 3.74 µM | 7.03 µM
32 | COc1cc2c(Oc3ccc4[nH]c(C)cc4c3F)ccnc2cc1OCC1(N)CC1 [Anlotinib (AL3818) dihydrochloride] | 4.26 µM | 7.14 µM
33 | Cc1c(CN2CCN(C(=O)[C@H](C)O)CC2)sc2c(N3CCOCC3)nc(-c3cnc(N)nc3)nc12 [Apitolisib (GDC-0980, RG7422)] | 2.7 µM | 8.1 µM
34 | C=CC(=O)Nc1cccc(Oc2nc(Nc3ccc(N4CCN(C)CC4)c(F)c3)nc3[nH]ccc23)c1 [Avitinib (AC0010)] | 4.25 µM | 7.93 µM
35 | CNC(=O)c1ccccc1Sc1ccc2c(/C=C/c3ccccn3)n[nH]c2c1 [Axitinib] | 2.61 µM | 8.51 µM
36 | Cc1cc(-c2nc(-c3ccc(OC(F)(F)F)cc3)no2)nn1Cc1ccnc(N2CCN(C3CC3)CC2)c1 [BAY 87-2243] | 0.005 µM | 0.01 µM
37 | COc1ccc(-c2ccc3ncc4c(c3c2)n(-c2ccc(N3CCNCC3)c(C(F)(F)F)c2)c(=O)n4C)cn1 [BGT226 (NVP-BGT226)] | 0.03 µM | 0.1 µM
38 | CC[C@@H]1C(=O)N(C)c2cnc(Nc3ccc(C(=O)NC4CCN(C)CC4)cc3OC)nc2N1C1CCCC1 [BI 2536] | 0.04 µM | 0.12 µM
39 | COc1c(C)cnc(Cn2cnc3c(Cl)nc(N)nc32)c1C [BIIB021] | 1.03 µM | 4.01 µM
40 | O=C(Nc1cccc(Nc2ncc(Br)c(NCCc3cnc[nH]3)n2)c1)N1CCCC1 [BX-912] | 5.57 µM | 9.64 µM
41 | C=C[C@@](C)(/C=C/c1ccc(O)cc1)CCC=C(C)C [Bakuchiol] | 2.58 µM | 4.77 µM
42 | Nc1cc(C(F)(F)F)c(-c2nc(N3CCOCC3)nc(N3CCOCC3)n2)cn1 [Bimiralisib (PQR309)] | 1.92 µM | 3.11 µM

Row | SMILES | estimated IC50 [1] | estimated IC50 [2]
43 | Cn1cc(C2=C(c3cn(CCCSC(=N)N)c4ccccc34)C(=O)NC2=O)c2ccccc21 [Bisindolylmaleimide IX (Ro 31-8220 Mesylate)] | 3.9 µM | 6.1 µM
44 | C=CC(=O)Nc1ccc2[nH]c(=O)n(C3CCN(Cc4ccc(-c5nc6cc[nH]c(=O)c6cc5-c5ccccc5)cc4)CC3)c2c1 [Borussertib] | 0.72 µM | 5.32 µM
45 | CC1(C)CC(Oc2ccc(-c3ccc(-c4cn[nH]c4)cc3O)nn2)CC(C)(C)N1 [Branaplam (LMI070)] | 0.34 µM | 6.06 µM
46 | COc1cc(OC)c(/C=C/S(=O)(=O)Cc2ccc(OC)c(OP(=O)(O)O)c2)c(OC)c1 [Briciclib] | 0.039 µM | 0.059 µM
47 | Nc1cc(C(F)(F)F)c(-c2cc(N3CCOCC3)nc(N3CCOCC3)n2)cn1 [Buparlisib (BKM120, NVP-BKM120)] | 2.23 µM | 4.5 µM
48 | O=C(Cc1cccc(OC(F)(F)F)c1)Nc1ccc(CCCCc2nnc(NC(=O)Cc3ccccn3)s2)nn1 [CB-839] | 1.23 µM | 2.46 µM
49 | Cc1cc2c(C(N)=O)cccc2n1-c1nc2c(c(NCc3ccccc3)n1)COCC2 [CB-5083] | 0.32 µM | 0.48 µM
50 | CC1(C)CC[C@]2(C(=O)n3ccnc3)CC[C@]3(C)[C@H](C(=O)C=C4[C@@]5(C)C=C(C#N)C(=O)C(C)(C)[C@@H]5CC[C@]43C)[C@@H]2C1 [CDDO-Im] | 2 µM | 3.41 µM
51 | O=C(NC(NC(=S)Nc1ccc(F)c([N+](=O)[O-])c1)C(Cl)(Cl)Cl)C(c1ccccc1)c1ccccc1 (centres undefined) [CGK 733] | 3.4 µM | > 10 µM
52 | O=c1[nH]c2ccc(Cl)cc2c(N[C@@H]2CN3CCC2CC3)c1-c1nc2ccccc2[nH]1 [CHIR-124] | 3 µM | 4.5 µM
53 | COc1ccc(-c2nc(N3CCOCC3)c3sc(CN(C)c4ncc(C(=O)NO)cn4)cc3n2)cn1 [CUDC-907] | 0.02 µM | 0.03 µM
54 | COc1ccc(CNc2nc(N(CCO)CCO)nc3c2ncn3C(C)C)cc1 [CVT-313] | 2.5 µM | 4.7 µM
55 | Cc1nc(N)sc1-c1ccnc(Nc2ccc(N3CCOCC3)cc2)n1 [CYC116] | 1.75 µM | 5.45 µM
56 | CCNC(=O)Nc1ccc(-c2nc(N3CCOC[C@@H]3C)c3c(n2)C(C)(C)S(=O)(=O)C3)cc1 [CZ415] | 0.66 µM | 1.33 µM
57 | CO[C@H]1C(=O)[C@]2(C)[C@@H](OC)C[C@H]3OC[C@@]3(OC(C)=O)[C@H]2[C@H](OC(=O)c2ccccc2)[C@]2(O)C[C@H](OC(=O)[C@H](O)[C@@H](NC(=O)OC(C)(C)C)c3ccccc3)C(C)=C1C2(C)C [Cabazitaxel] | 0.0168 µM | 0.083 µM
58 | O=C(/C=C/c1ccc(O)c(O)c1)OCCc1ccccc1 [Caffeic Acid Phenethyl Ester] | 3.62 µM | 8.08 µM
59 | Nc1nc(Cl)nc2c1ncn2[C@@H]1O[C@H](CO)[C@@H](O)[C@@H]1F [Clofarabine] | 3.34 µM | 6.98 µM
60 | COc1cc2c(c(OC)c1OC)-c1ccc(OC)c(=O)cc1[C@@H](NC(C)=O)CC2 [Colchicine] | 0.0396 µM | 0.0672 µM
61 | Nc1cccc(S(=O)(=O)N2CCCN(S(=O)(=O)c3ccc4c(c3)OCCO4)CC2)c1 [DASA-58] | 3.9 µM | 8.03 µM
62 | Cc1ccc(CNc2ccc(Cl)cc2NCc2ccc(C)c(O)c2)cc1O [DRB18] | 6.19 µM | 9.78 µM
